# According to the supplement of paper PMC8183993:
# Counter-ions that a name gives are not always drawn. ± gives the standard deviation of the averaged measurements. Over roughly 3,100 compounds, “mean cytoplasmic OPP incorporation (global translation) relative to DMSO” has its median near 100; the lowest 2% begin near 56. Some of the results follow.
# System: U2OS
# Experiment: mean cytoplasmic OPP incorporation (global translation) relative to DMSO (% of DMSO); higher = more protein synthesis
# Conditions: 10 µM; 24 h
# Protocol: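 Primary image-based screen in U2OS cells: compounds at 10 uM for 24 h, then a 1 h o-propargyl-puromycin (OPP) pulse, click labelling, and high-throughput microscopy. Mean cytoplasmic OPP intensity and nuclei count were normalised to DMSO wells within each plate (DMSO = 100) and averaged over triplicate plates.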
row,SMILES,mean cytoplasmic OPP incorporation
1,C=C1C(=O)[C@]23[C@H](O)[C@H]1CC[C@H]2[C@@]12CO[C@]3(O)[C@@H](O)[C@@H]1C(C)(C)CC[C@@H]2O [Oridonin (Isodonol)],78.2
2,NC(=O)c1ccc2[nH]ccc2c1,96.1
3,Oc1ccc(/C=C/c2cc(O)cc(O)c2)cc1 [Resveratrol],96.4 ± 5.4
4,CCOC(=O)C1=C(COCCN)NC(C)=C(C(=O)OC)C1c1ccccc1Cl (centres undefined) [Amlodipine],104 ± 3.4
5,CCOC(=O)C1=C(COCCN)NC(C)=C(C(=O)OC)C1c1ccccc1Cl (centres undefined) [Amlodipine besylate],99.4
6,CCN(CC)CCNC(=O)c1c(C)[nH]c(/C=C2\C(=O)Nc3ccc(F)cc32)c1C [Sunitinib Malate (Sutent)],74.8
7,COc1ccc(/C=C/C(=O)Nc2ccccc2C(=O)O)cc1OC [Tranilast],97.1 ± 1.6
8,CN(C)C(=O)C(CCN1CCC(O)(c2ccc(Cl)cc2)CC1)(c1ccccc1)c1ccccc1 [Loperamide hydrochloride],109 ± 4.4
9,Cc1ccccc1C(=O)Nc1ccc(C(=O)N2CCCC(O)c3cc(Cl)ccc32)c(C)c1 (centres undefined),107
10,CC[N+](CC)(CC)CCOc1ccc(/C=C/c2ccccc2)cc1,93.2
11,CC(C)c1cc2c(c(O)c1O)[C@@]13CCCC(C)(C)[C@@H]1C[C@@H]2OC3=O [Carnosol],107
12,CC(=O)O[C@H]1CC[C@@]2(C)C(=CC[C@@H]3[C@@H]2CC[C@]2(C)C(c4cccnc4)=CC[C@@H]32)C1 [Abiraterone Acetate (CB7630)],97.8
13,COc1ccccc1N1CCN(CCN2C(=O)c3ccccc3C(C)(C)C2=O)CC1 [ARC 239 dihydrochloride],110
14,Nc1nc2[nH]cnc2c(=S)[nH]1 [Thioguanine],131
15,O=C1c2c(O)cccc2C([C@@H]2O[C@H](CO)[C@@H](O)[C@H](O)[C@H]2O)c2cc(CO)cc(O)c21 (some centres undefined) [Aloin (Barbaloin)],123
16,CCCCc1cc2ccccc2c(OCCN(C)C)n1 [Dimethisoquin hydrochloride],90.4
17,CC(C(=O)O)c1ccc2c(c1)[nH]c1ccc(Cl)cc12 (centres undefined) [Carprofen],108
18,C=CCc1cccc(/C=N/NC(=O)CN2CCN(Cc3ccccc3)CC2)c1O,89.6
19,Cc1cccc(C)c1NC(=O)C(C)N (centres undefined) [Tocainide hydrochloride],107
20,CC(NC(=O)C(Cc1ccccc1)NC(=O)OCc1ccccc1)C(=O)CF (centres undefined),101
21,COc1cc(C(=O)NC(=S)Nc2cccc(NC(=O)c3ccccc3)c2)cc(OC)c1OC,117
22,COc1cc([S+](C)[O-])ccc1-c1nc2cccnc2[nH]1 (centres undefined) [Sulmazole],106
23,NC(N)=NC(N)=Nc1cccc(Cl)c1 [m-Chlorophenylbiguanide hydrochloride],102
24,C[C@H]1O[C@@H](O[C@H]2[C@@H](O)C[C@H](O[C@H]3[C@@H](O)C[C@H](O[C@H]4CC[C@@]5(C)[C@H](CC[C@@H]6[C@@H]5C[C@@H](O)[C@]5(C)[C@@H](C7=CC(=O)OC7)CC[C@]65O)C4)O[C@@H]3C)O[C@@H]2C)C[C@H](O)[C@@H]1O [Digoxin],19
25,O=C(OCC(O)CO)c1ccccc1Nc1ccnc2cc(Cl)ccc12 (centres undefined) [Glafenine hydrochloride],107

row,SMILES,mean cytoplasmic OPP incorporation
1,COc1cc2c(N3CCN(C(=O)Nc4ccc(OC(C)C)cc4)CC3)ncnc2cc1OCCCN1CCCCC1 [Tandutinib (MLN518)],109
2,NC(=O)c1cn(Cc2c(F)cccc2F)nn1 [Rufinamide (Banzel)],98.7
3,CC(C(=O)O)c1ccc(-c2ccccc2)c(F)c1 (centres undefined) [Flurbiprofen],98.5 ± 8.3
4,COc1cc(N)c(Cl)cc1C(=O)OCCCN1CCCCC1,104
5,COc1ccc(CCN(C)CCCN2CCc3cc(OC)c(OC)cc3CC2=O)cc1OC [Zatebradine hydrochloride],107
6,C[C@H](CCC(=O)O)[C@H]1CC[C@H]2[C@@H]3[C@H](O)C[C@@H]4C[C@H](O)CC[C@]4(C)[C@H]3C[C@H](O)[C@]12C [Cholic acid],100
7,O=c1ccc2cc(O)c(O)cc2o1 [Esculetin],120
8,COc1ccccc1N1CCN(CCCCNC(=O)c2ccc(-c3ccc(C(C)=O)cc3)cc2)CC1,115
9,CCCCCCCC/C=C\CCCCCCCC(N)=O [Oleamide],101
10,COC1(C2=NCCN2)COc2ccccc2O1 (centres undefined),102
11,OC[C@H]1O[C@@H](n2cnc3c(N[C@H]4CCC[C@@H]4O)ncnc32)[C@H](O)[C@@H]1O,102
12,Cc1ncc(-c2ccnc(Nc3ccc(S(C)(=O)=O)cc3)n2)n1C(C)C,55.9
13,CC(C)NC[C@@H](O)COc1ccc(CC(N)=O)cc1 [(R)-(+)-Atenolol],104
14,NS(=O)(=O)c1cc2c(cc1C(F)(F)F)NCNS2(=O)=O [Hydroflumethiazide],92.1
15,NC(=O)CCCCn1ccc(NC(N)=NCC(F)(F)F)n1,108
16,CN(C)CCCN=c1c2ccccc2n(C)c2[nH]c(=O)n(C)c(=O)c12,85.2
17,COC(=O)C1=C(C)NC(C)=C([N+](=O)[O-])[C@H]1c1ccccc1C(F)(F)F,106
18,O=C(Nc1ccccc1)C12CC1C(=NO)c1ccccc1O2 (centres undefined),92.4
19,N#CCNC(=O)c1ccc(-c2ccnc(Nc3ccc(N4CCOCC4)cc3)n2)cc1 [Momelotinib (CYT387)],95.6
20,OCc1c[nH]c2ccccc12 [Indole-3-carbinol],113
21,Cc1c(NC(=O)c2cccnc2)c(=O)n(-c2ccccc2)n1C [Nifenazone],98.6
22,O=C(/C=C/c1ccc(O)cc1)c1ccc(O)cc1O [Isoliquiritigenin],100
23,CS(=O)(=O)OCCCCOS(C)(=O)=O [Busulfan],102
24,CC(=N)NCCCC[C@H](N)C(=O)O [L-NIL hydrochloride],98.3
25,CN1CCc2c(c3ccccc3n2Cc2ccc(C(=O)NO)cc2)C1 [Tubastatin A HCl],75.7

row,SMILES,mean cytoplasmic OPP incorporation
1,CC[C@@H]1C(=O)OC[C@@H]1Cc1cncn1C [Pilocarpine hydrochloride],99.9
2,CC[C@@H]1C(=O)OC[C@@H]1Cc1cncn1C [Pilocarpine nitrate],97.8
3,CC(C)(CO)c1cc2cc(NC(=O)C3(c4ccc5c(c4)OC(F)(F)O5)CC3)c(F)cc2n1C[C@@H](O)CO,101
4,"Cc1c(CN2CCN(C(=O)[C@H](C)O)CC2)sc2c(N3CCOCC3)nc(-c3cnc(N)nc3)nc12 [Apitolisib (GDC-0980, RG7422)]",50.7
5,Cc1cnc(-c2cc(N3CCN(C(=O)CCS(C)(=O)=O)CC3)ncc2Cl)c(C)c1,95.9
6,C[C@@H](O[C@H]1OCCN(Cc2nn(P(=O)(O)O)c(=O)[nH]2)[C@H]1c1ccc(F)cc1)c1cc(C(F)(F)F)cc(C(F)(F)F)c1 [Fosaprepitant dimeglumine],108
7,CCC(C)(Oc1ccc(C2(c3ccc(OC(C)(CC)C(=O)O)cc3)CCCCC2)cc1)C(=O)O (centres undefined) [Clinofibrate],100
8,COc1cc2nccc(Oc3ccc(NC(=O)NC4CC4)c(Cl)c3)c2cc1C(N)=O [E7080 (Lenvatinib)],97.3 ± 0.1
9,CCn1c(=O)[nH]c2cc(Cl)c(Cl)cc21,98.5
10,CC(=O)OCC(=O)[C@@]12OC(C)(C)O[C@@H]1C[C@H]1[C@@H]3C[C@H](F)C4=CC(=O)C=C[C@]4(C)[C@@]3(F)[C@@H](O)C[C@@]12C [Fluocinonide],105
11,CC(=O)OCC(=O)[C@@]12OC(C)(C)O[C@@H]1C[C@H]1[C@@H]3C[C@H](F)C4=CC(=O)C=C[C@]4(C)[C@@]3(F)[C@@H](O)C[C@@]12C [Fluocinonide (Vanos)],105
12,c1ccc2c(CC3=NCCN3)cccc2c1 [Naphazoline hydrochloride],102
13,CCN(CC)CC(=O)Nc1c(C)cccc1C [Lidocaine hydrochloride],104
14,CC(=O)CC(c1ccccc1)c1c(O)c2ccccc2oc1=O (centres undefined) [Warfarin],107
15,NS(=O)(=O)c1cc2c(cc1Cl)NC(C1CC3C=CC1C3)NS2(=O)=O (centres undefined) [Cyclothiazide],94.8
16,S=C(S)N1CCCC1 [Pyrrolidinedithiocarbamate ammonium],94.2
17,CO[C@@H]1[C@@H](O[C@@H]2O[C@H](C)[C@@H](O[C@H]3C[C@@](C)(O)[C@@H](OC(=O)CC(C)C)[C@H](C)O3)[C@H](N(C)C)[C@H]2O)[C@@H](CC=O)C[C@@H](C)[C@@H](O)/C=C/C=C/C[C@@H](C)OC(=O)C[C@H]1OC(C)=O [Josamycin],110
18,O=c1oc2c(O)c(O)cc3c(=O)oc4c(O)c(O)cc1c4c23 [Ellagic Acid],111
19,O=c1oc2c(O)c(O)cc3c(=O)oc4c(O)c(O)cc1c4c23 [Ellagic acid],106
20,CNC(=O)c1cc(Oc2ccc(NC(=O)Nc3ccc(Cl)c(C(F)(F)F)c3)cc2)ccn1 [Sorafenib tosylate],129
21,CNC(=O)c1cc(Oc2ccc(NC(=O)Nc3ccc(Cl)c(C(F)(F)F)c3)cc2)ccn1 [Sorafenib (Nexavar)],94.3
22,CNC(=O)c1cc(Oc2ccc(NC(=O)Nc3ccc(Cl)c(C(F)(F)F)c3)cc2)ccn1 [Sorafenib],91.2
23,COc1cccc2c1C(=O)c1c(O)c3c(c(O)c1C2=O)C[C@@](O)(C(C)=O)C[C@@H]3O[C@H]1C[C@H](N)[C@H](O)[C@H](C)O1 [Daunorubicin HCl (Daunomycin HCl)],59.9
24,COc1cccc2c1C(=O)c1c(O)c3c(c(O)c1C2=O)C[C@@](O)(C(C)=O)C[C@@H]3O[C@H]1C[C@H](N)[C@H](O)[C@H](C)O1 [Daunorubicin hydrochloride],40.7
